Reference: publication PMC9911399, “Two distinct binding modes provide the RNA-binding protein RbFox with extraordinary sequence specificity”
Residue numbers refer to the chain shown, from its start. Some of the results follow.

B1: AGAUUUC (DNA:RNA)
RNA: GGGAGACCGGAAUUCAGAUUGUCCAGAUUUCUUAAAUCCCGUCGUAGCCACCA
DNA 1: CAATCTGAATTCCGGTCTCCC
DNA 2: TGGTGGCTACGACGGGATT
B2: CUGAAAU (DNA:RNA)
RNA: GGGAGACCGGAAUUCAGAUUGUCCCUGAAAUUUAAAUCCCGUCGUAGCCACCA
DNA 1: CAATCTGAATTCCGGTCTCCC
DNA 2: TGGTGGCTACGACGGGATT
B3: GGUAACC (DNA:RNA)
RNA: B1 RNA with A25G, A27U, U28A, U29A, U30C
DNA 1: CAATCTGAATTCCGGTCTCCC
DNA 2: TGGTGGCTACGACGGGATT
B4: UUUUAAA (DNA:RNA)
RNA: B2 RNA with C25U, G27U, A28U, U31A
DNA 1: CAATCTGAATTCCGGTCTCCC
DNA 2: TGGTGGCTACGACGGGATT
B5: AAGCUUC (DNA:RNA)
RNA: B1 RNA with G26A, A27G, U28C
DNA 1: CAATCTGAATTCCGGTCTCCC
DNA 2: TGGTGGCTACGACGGGATT
B6: GUACAUA (DNA:RNA)
RNA: B1 RNA with A25G, G26U, U28C, U29A, C31A
DNA 1: CAATCTGAATTCCGGTCTCCC
DNA 2: TGGTGGCTACGACGGGATT
B7: AGUCGUA (DNA:RNA)
RNA: B1 RNA with A27U, U28C, U29G, C31A
DNA 1: CAATCTGAATTCCGGTCTCCC
DNA 2: TGGTGGCTACGACGGGATT
B8: GCACUCA (DNA:RNA)
RNA: B1 RNA with A25G, G26C, U28C, U30C, C31A
DNA 1: CAATCTGAATTCCGGTCTCCC
DNA 2: TGGTGGCTACGACGGGATT
B9: ACCCACG (DNA:RNA)
RNA: B1 RNA with G26C, A27C, U28C, U29A, U30C, C31G
DNA 1: CAATCTGAATTCCGGTCTCCC
DNA 2: TGGTGGCTACGACGGGATT
B10: GUUAGGA (DNA:RNA)
RNA: B2 RNA with C25G, G27U, A29G, A30G, U31A
DNA 1: CAATCTGAATTCCGGTCTCCC
DNA 2: TGGTGGCTACGACGGGATT
B11: AUGCCGU (DNA:RNA)
RNA: B2 RNA with C25A, A28C, A29C, A30G
DNA 1: CAATCTGAATTCCGGTCTCCC
DNA 2: TGGTGGCTACGACGGGATT
B12: UGCUUGA (DNA:RNA)
RNA: B1 RNA with A25U, A27C, U30G, C31A
DNA 1: CAATCTGAATTCCGGTCTCCC
DNA 2: TGGTGGCTACGACGGGATT
B13: GGUAUUC (DNA:RNA)
RNA: B1 RNA with A25G, A27U, U28A
DNA 1: CAATCTGAATTCCGGTCTCCC
DNA 2: TGGTGGCTACGACGGGATT
B14: UGCUUAA (DNA:RNA)
RNA: B1 RNA with A25U, A27C, U30A, C31A
DNA 1: CAATCTGAATTCCGGTCTCCC
DNA 2: TGGTGGCTACGACGGGATT
B15: UGCAUUG (DNA:RNA)
RNA: B1 RNA with A25U, A27C, U28A, C31G
DNA 1: CAATCTGAATTCCGGTCTCCC
DNA 2: TGGTGGCTACGACGGGATT
B16: GGUCAUC (DNA:RNA)
RNA: B1 RNA with A25G, A27U, U28C, U29A
DNA 1: CAATCTGAATTCCGGTCTCCC
DNA 2: TGGTGGCTACGACGGGATT
B17: CCAACGG (DNA:RNA)
RNA: B2 RNA with U26C, G27A, A29C, A30G, U31G
DNA 1: CAATCTGAATTCCGGTCTCCC
DNA 2: TGGTGGCTACGACGGGATT
B18: GACGGUC (DNA:RNA)
RNA: B1 RNA with A25G, G26A, A27C, U28G, U29G
DNA 1: CAATCTGAATTCCGGTCTCCC
DNA 2: TGGTGGCTACGACGGGATT
B19: UUCAGAC (DNA:RNA)
RNA: B2 RNA with C25U, G27C, A29G, U31C
DNA 1: CAATCTGAATTCCGGTCTCCC
DNA 2: TGGTGGCTACGACGGGATT
B20: AGUAGUC (DNA:RNA)
RNA: B1 RNA with A27U, U28A, U29G
DNA 1: CAATCTGAATTCCGGTCTCCC
DNA 2: TGGTGGCTACGACGGGATT
B21: CAAGGGC (DNA:RNA)
RNA: B1 RNA with A25C, G26A, U28G, U29G, U30G
DNA 1: CAATCTGAATTCCGGTCTCCC
DNA 2: TGGTGGCTACGACGGGATT
B22: ACGCCCG (DNA:RNA)
RNA: B1 RNA with G26C, A27G, U28C, U29C, U30C, C31G
DNA 1: CAATCTGAATTCCGGTCTCCC
DNA 2: TGGTGGCTACGACGGGATT
B23: AACUAUG (DNA:RNA)
RNA: B1 RNA with G26A, A27C, U29A, C31G
DNA 1: CAATCTGAATTCCGGTCTCCC
DNA 2: TGGTGGCTACGACGGGATT
B24: CUUUCAU (DNA:RNA)
RNA: B2 RNA with G27U, A28U, A29C
DNA 1: CAATCTGAATTCCGGTCTCCC
DNA 2: TGGTGGCTACGACGGGATT
B25: AGCCUUG (DNA:RNA)
RNA: B1 RNA with A27C, U28C, C31G
DNA 1: CAATCTGAATTCCGGTCTCCC
DNA 2: TGGTGGCTACGACGGGATT
B26: AGCUGGC (DNA:RNA)
RNA: B1 RNA with A27C, U29G, U30G
DNA 1: CAATCTGAATTCCGGTCTCCC
DNA 2: TGGTGGCTACGACGGGATT
B27: UGCGACC (DNA:RNA)
RNA: B1 RNA with A25U, A27C, U28G, U29A, U30C
DNA 1: CAATCTGAATTCCGGTCTCCC
DNA 2: TGGTGGCTACGACGGGATT
B28: GACAACC (DNA:RNA)
RNA: B2 RNA with C25G, U26A, G27C, A30C, U31C
DNA 1: CAATCTGAATTCCGGTCTCCC
DNA 2: TGGTGGCTACGACGGGATT
B29: CACCCCC (DNA:RNA)
RNA: B1 RNA with A25C, G26A, A27C, U28C, U29C, U30C
DNA 1: CAATCTGAATTCCGGTCTCCC
DNA 2: TGGTGGCTACGACGGGATT
B30: UUGCGUC (DNA:RNA)
RNA: B1 RNA with A25U, G26U, A27G, U28C, U29G
DNA 1: CAATCTGAATTCCGGTCTCCC
DNA 2: TGGTGGCTACGACGGGATT
B31: GUUCACA (DNA:RNA)
RNA: B2 RNA with C25G, G27U, A28C, A30C, U31A
DNA 1: CAATCTGAATTCCGGTCTCCC
DNA 2: TGGTGGCTACGACGGGATT

Each binder was assayed against T1, RBFOX1 RRM RbFoxmut (Fox-RRM*) (Homo sapiens, UniProt Q9NWB1 109-208, R118D;E147R;N151S;E152T) (assay: EMSA; HiTS-Eq, 1 nM pool, 10 min; buffer printed only for the single-RNA assays: 10 mM Tris pH 7.5, 150 mM NaCl, 3.4 mM EDTA, 0.001% NP-40, 30 C). Settings: tags: His6 N-terminal (pET28a); label: 5' 32P.
T1 sequence: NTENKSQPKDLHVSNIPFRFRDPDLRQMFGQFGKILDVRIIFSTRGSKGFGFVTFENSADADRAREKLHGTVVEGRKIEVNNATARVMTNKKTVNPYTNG
Procedure, shortened: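 These values rest on relative association constants, computed from read-count changes of each RNA species versus the control reaction and normalised to the cognate motif. Reads came from free RNA recovered by 8% native PAGE after purified RbFox RRM (wild type or mutant) at increasing concentrations was equilibrated for 10 min in 50 µL with 1 nM of a 5′-radiolabelled pool with 7 randomized nucleotides and DNA-annealed flanks.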

Binder | binding signal
B1 | 0.0772 KA relative to UGCAUGU
B2 | 0.0434 KA relative to UGCAUGU
B3 | 0.0646 KA relative to UGCAUGU
B4 | 0.117 KA relative to UGCAUGU
B5 | 0.0663 KA relative to UGCAUGU
B6 | 0.112 KA relative to UGCAUGU
B7 | 0.0993 KA relative to UGCAUGU
B8 | 0.0691 KA relative to UGCAUGU
B9 | 0.124 KA relative to UGCAUGU
B10 | 0.0568 KA relative to UGCAUGU
B11 | 0.131 KA relative to UGCAUGU
B12 | 0.308 KA relative to UGCAUGU
B13 | 0.126 KA relative to UGCAUGU
B14 | 0.133 KA relative to UGCAUGU
B15 | 0.494 KA relative to UGCAUGU
B16 | 0.152 KA relative to UGCAUGU

Binder | binding signal
B17 | 0.0596 KA relative to UGCAUGU
B18 | 0.117 KA relative to UGCAUGU
B19 | 0.0589 KA relative to UGCAUGU
B20 | 0.118 KA relative to UGCAUGU
B21 | 0.07 KA relative to UGCAUGU
B22 | 0.0806 KA relative to UGCAUGU
B23 | 0.114 KA relative to UGCAUGU
B24 | 0.0923 KA relative to UGCAUGU
B25 | 0.576 KA relative to UGCAUGU
B26 | 0.128 KA relative to UGCAUGU
B27 | 0.129 KA relative to UGCAUGU
B28 | 0.0246 KA relative to UGCAUGU
B29 | 0.08 KA relative to UGCAUGU
B30 | 0.126 KA relative to UGCAUGU
B31 | 0.0899 KA relative to UGCAUGU
